Results: the RNAGym collection of RNA variant scans (doi:10.7554/elife.90254)
Read counts are not given, so values of variants with three or more changes are uncertain.

B1: OR4K15 (parent)
chain: GUUAACGGUCAUAGGCCAUGGAAACUAGGAGCACCAUUUCGCUGCCAGUGAAGAAAUGAACAAAGAAAAUCUGGGCCAGGCAGGCAUCAAAAGAAAUAGUCUUGCGCUCAACCAGAAAGUCUGUAAUCAUUUUAAGGGUA

Variants of: B1
Test: self-cleavage, relative activity (ratio to wild type); higher = more cleavage; in vitro, sequencing; the parent is a self-cleaving ribozyme
With U3C A59G A114U the self-cleavage was 0.06.
A22U A47U A126G gave a self-cleavage of 1.03.
Variant U2C U19C A78C C88U U102C U108C has a self-cleavage of 0.06.
In the case of A95C G119U U130G, the self-cleavage is reported as 0.55.
Variant U37A A64G U127C has a self-cleavage of 0.54.
In the case of C6U A18G A60G A82G, the self-cleavage is reported as 0.5.
With A23U G84U A114U the self-cleavage was 0.03.
U38C A60G U72C showed a self-cleavage of 0.08.
For A5G U38C G58A A67G, the self-cleavage was 1.38.
Variant A5C A67G A111U has a self-cleavage of 0.19.
Work on A59G A96G A117G U132A yielded a self-cleavage of 2.3.
Variant A55U A66U U87C U122A has a self-cleavage of 0.52.
Work on A69C A117G A129U yielded a self-cleavage of 1.17.
For A52G A55U A64G, the self-cleavage was 0.74.
For U2C A68G A86G A98G U108C, the self-cleavage was 0.02.
For A82G U87C A92G, the self-cleavage was 0.33.
Work on A59G A62G A67C A110G A118U yielded a self-cleavage of 0.19.
With A30G A94G U131A the self-cleavage was 1.13.
Variant A47U A82G A116U U127A has a self-cleavage of 0.05.
In the case of A30U A52G G79A, the self-cleavage is reported as 0.14.
A67U U97C U103C showed a self-cleavage of 1.05.
U19C U57C A69G A91G G138U gave a self-cleavage of 0.52.
In the case of A56U A66G A94G U100C U108C, the self-cleavage is reported as 0.
Work on U19C U49C A59G A68G yielded a self-cleavage of 0.34.
For U38C A67U U108C, the self-cleavage was 0.
For A36U U103C U124C U131C, the self-cleavage was 0.33.
U9C A78G A96G U97C U102C gave a self-cleavage of 0.17.
With U3C U57C U122A the self-cleavage was 1.09.
Variant A33G A36G U43C C109U U122C has a self-cleavage of 0.09.
Work on A18G A23G A126U yielded a self-cleavage of 1.23.
Work on A78U A89U U100C yielded a self-cleavage of 0.88.
For A52G A54G A66G, the self-cleavage was 0.78.
A22G A54G U124C showed a self-cleavage of 0.67.
With A22G U43C A52G G74U the self-cleavage was 0.19.
A54G A55G U72C A90G U100G U122C showed a self-cleavage of 0.14.
Variant U38C A55G A92G U127C has a self-cleavage of 0.95.
In the case of U19A G20A A69G U87A A129G, the self-cleavage is reported as 0.91.
In the case of A60G U70C A90G, the self-cleavage is reported as 0.58.
U12C U49C A56G G79A A96G A110G showed a self-cleavage of 0.01.
With A4G G41U A68G the self-cleavage was 0.2.
In the case of A89C A95G A111U A134G, the self-cleavage is reported as 0.29.
G14A A63G A94G gave a self-cleavage of 1.23.
G50A U122C U127A gave a self-cleavage of 1.11.
A5G U12C A59G A69C A118G gave a self-cleavage of 0.36.
With U38C A54G A64G A78U the self-cleavage was 0.4.
Variant A22G A51G G53A U103C has a self-cleavage of 1.17.
Work on U70C G80C A90C yielded a self-cleavage of 0.15.
For U43G A67G A114U, the self-cleavage was 0.07.
In the case of A55U A63U A114U, the self-cleavage is reported as 0.1.
A23G A62G A64G C81A gave a self-cleavage of 0.33.
A36C A114G A129U showed a self-cleavage of 0.09.
With A52G A59U A66U U127C A135G the self-cleavage was 0.76.
C46U A52G A60G U139C gave a self-cleavage of 1.4.
With A24C A89G A96G the self-cleavage was 1.33.
Work on A5G A33G A52G C128A yielded a self-cleavage of 1.07.
With A27G A91G A117G the self-cleavage was 0.62.
In the case of A23G U37C U70C U108A A117G U139C, the self-cleavage is reported as 0.02.
Variant U49C A68G U72C A126G U130C has a self-cleavage of 0.08.
For A33U U38C A47G U57C U87A A94G A118G, the self-cleavage was 0.27.
A66G A67U A68G U72C showed a self-cleavage of 0.26.
Work on U72C A90G A92G yielded a self-cleavage of 0.13.
For U49A A52G U87C A126G, the self-cleavage was 0.52.
With A23C A63G A68C the self-cleavage was 2.18.
A24G A52G U127C gave a self-cleavage of 0.86.
U19C G21A C121A showed a self-cleavage of 2.1.
For U9A C10A A22G, the self-cleavage was 1.56.
In the case of A5G G53U A98G G138A, the self-cleavage is reported as 0.59.
For U9A A59G A69G, the self-cleavage was 0.24.
A59G A68G U120C U132A gave a self-cleavage of 0.2.
For U2C A68G A90G A98U, the self-cleavage was 0.98.
For A68G U87G A90G A117G, the self-cleavage was 0.86.
Work on G15U G58U U124A yielded a self-cleavage of 0.56.
A22U U87C A91U U102A U103A showed a self-cleavage of 0.09.
Variant A47G A59G A64U A94G U97C U100C has a self-cleavage of 1.72.
Variant A68G A90G U132C has a self-cleavage of 0.86.
With A78G A111G U132C the self-cleavage was 0.02.
U19C U39A A69G showed a self-cleavage of 1.65.
A11G A63G U108C gave a self-cleavage of 0.01.
Work on A18U A27G U37A U38C yielded a self-cleavage of 1.26.
Variant A47G A52G U57C A118G has a self-cleavage of 0.22.
With A86U A96G G115A U120C the self-cleavage was 0.02.
With A62U A78G A92G U97C A117G the self-cleavage was 0.13.
For A47G A60G A118G A125G, the self-cleavage was 0.02.
With A51G A60G A92G the self-cleavage was 1.77.
Variant A33U A69G U72A A78U G79U U120C has a self-cleavage of 0.15.
With U3C U72C A78G the self-cleavage was 0.11.
A5G A27G A78U A86G showed a self-cleavage of 0.16.
Variant A13C U87C U108C U139C has a self-cleavage of 0.02.
With A4G A36U A52U A89U the self-cleavage was 1.03.
For U19G A82C A117G U127C, the self-cleavage was 0.08.
In the case of U43A U57C U130C, the self-cleavage is reported as 1.44.
Work on A11G A22U U38C yielded a self-cleavage of 0.29.
A27G C88A G119A gave a self-cleavage of 1.95.
U2C A56G A92G U120C gave a self-cleavage of 0.38.
Variant A94G U100C A118G has a self-cleavage of 2.34.
U9C A56G U97C A116G U127C gave a self-cleavage of 0.17.
U49C U87C U102G U139A gave a self-cleavage of 0.12.
Work on A23G A60G A90G yielded a self-cleavage of 0.45.
Work on U2A A47G A52G A66G U87C A89U yielded a self-cleavage of 0.87.
Variant A62G A67G A69G U108A U122C has a self-cleavage of 0.04.
U9C A92G U103C U132C A140G showed a self-cleavage of 0.67.
A23G U49C U57G A86G showed a self-cleavage of 0.67.
For U19A U72A A111G A117G, the self-cleavage was 0.
With A24C A33G A67G U122A the self-cleavage was 0.38.
Work on U3C A55G A67G A94G A111G A114C U127A yielded a self-cleavage of 0.01.
A69G U97C C107U gave a self-cleavage of 0.01.
A69G G74A A86U A95G gave a self-cleavage of 0.
A36G U37C G119A A140G gave a self-cleavage of 1.82.
With A33G G44A A82G A114U A116G the self-cleavage was 0.02.
Work on A24G U43C C77U G79U yielded a self-cleavage of 0.25.
Work on U19A A33G A55C A64G yielded a self-cleavage of 0.71.
A22G G58A A78G U131C gave a self-cleavage of 0.32.
For U38C A52G A59G A63G A67G U108C U127C, the self-cleavage was 0.01.
With U19C U38C U70C the self-cleavage was 0.67.
With A13U A69G A116G the self-cleavage was 0.67.
In the case of U12A A68U A92U U132C, the self-cleavage is reported as 1.3.
A94G C113U U122C U124C A134G gave a self-cleavage of 0.01.
A36G A114U U133C gave a self-cleavage of 0.09.
A64G A78G A91G A98G A110G showed a self-cleavage of 0.04.
U3C A18G A94G gave a self-cleavage of 1.28.
Work on U39C U102A A140G yielded a self-cleavage of 0.7.
In the case of A55G U70A U108C A111G U120C, the self-cleavage is reported as 0.
Variant U103C U127C U132C has a self-cleavage of 0.42.
Variant A92G A118G U120A has a self-cleavage of 1.7.
Variant U2C A47G A98G A118U has a self-cleavage of 0.21.
Work on A5U U9C U57C U87A A140C yielded a self-cleavage of 1.09.
Work on U37C U38A U130A yielded a self-cleavage of 1.05.
For A33U U49C A59G A62U A67G A89G A126G, the self-cleavage was 0.48.
In the case of A55G A66G C71A A89U, the self-cleavage is reported as 0.64.
Work on A91G U103C G123A yielded a self-cleavage of 0.66.
A5G A22G A30U U70C U103C gave a self-cleavage of 0.34.
Work on A23G U37C A129G yielded a self-cleavage of 1.07.
For U9A U19C A33G U139A, the self-cleavage was 0.95.
In the case of A52U A92G U120C, the self-cleavage is reported as 1.25.
A18U A55G A118G gave a self-cleavage of 0.75.
A4G A78C C85U gave a self-cleavage of 0.3.
In the case of A51G A96C U97C A129G U130C, the self-cleavage is reported as 0.49.
Work on U37G U39A U70A yielded a self-cleavage of 1.37.
With U26C A36U U37C the self-cleavage was 0.75.
In the case of A22G A56G U57C U122C, the self-cleavage is reported as 0.84.
With A52G A56G A63G the self-cleavage was 0.99.
A94G A96G A126U showed a self-cleavage of 1.1.
A30G G65A U108C A114G showed a self-cleavage of 0.
U39C A54G U87C A116U gave a self-cleavage of 0.05.
With U9C A23G A33G A64G the self-cleavage was 0.25.
Work on U9C A63U A82U yielded a self-cleavage of 0.19.
Variant A30G A33G A64G A82C C85A has a self-cleavage of 0.12.
In the case of U9A A66G A82G A114U A140C, the self-cleavage is reported as 0.06.
Work on A5U U39C A89G A117G yielded a self-cleavage of 0.93.
With U12C A114C A116G the self-cleavage was 0.02.
For A62G U103C A116G, the self-cleavage was 0.71.
A68G C76U A114U showed a self-cleavage of 0.
Work on U38C A52U A62G A68G A78G A91G A117G U131C A135G yielded a self-cleavage of 0.05.
With G50A A51G A69G the self-cleavage was 1.23.
With A54G A60G U103C A118G the self-cleavage was 0.21.
A23G A33U U57C U122C U139C showed a self-cleavage of 0.44.
For A30G A33G A60G A68G G74C A78U A118G U120C, the self-cleavage was 0.04.
A5G U108C A111G showed a self-cleavage of 0.09.
Variant U38C A56G A126G has a self-cleavage of 2.18.
With C17U A18U U19C A27U A92G U130C the self-cleavage was 1.18.
Variant A23G A59G A111G has a self-cleavage of 0.05.
With A22G A78G U108C the self-cleavage was 0.02.
In the case of A56U A66G A116G U127C, the self-cleavage is reported as 0.32.
Work on G79A A118G U139C yielded a self-cleavage of 0.06.
With A36G U87A A91G the self-cleavage was 1.09.
In the case of U26C A51G U108C, the self-cleavage is reported as 0.05.
In the case of A86G U103C U127C U131C, the self-cleavage is reported as 0.33.
